# Assay results taken from PubChem BioAssay AID504332 (National Center for Advancing Translational Sciences (NCATS), 2011).
# Out of some 350,000 compounds screened, about 31,000 (8.9%) were called active. Inconclusive means that the source gave no clear call. Such entries were picked first, then a sample of the others. Calls follow the shape of the dose curve; as a rule, active = well fitted inhibition curve with a large enough effect; inconclusive = small, poorly fitted or top-dose-only effect; inactive = no such curve, though single readings can be large or run the other way. Where the call is inconclusive, the potency comes from a doubtful curve fit.
# Target: Histone-lysine N-methyltransferase EHMT2 (Homo sapiens) (UniProt Q96KQ7)
# Sequence of UniProt Q96KQ7 (Q96KQ7 whole entry, looked up): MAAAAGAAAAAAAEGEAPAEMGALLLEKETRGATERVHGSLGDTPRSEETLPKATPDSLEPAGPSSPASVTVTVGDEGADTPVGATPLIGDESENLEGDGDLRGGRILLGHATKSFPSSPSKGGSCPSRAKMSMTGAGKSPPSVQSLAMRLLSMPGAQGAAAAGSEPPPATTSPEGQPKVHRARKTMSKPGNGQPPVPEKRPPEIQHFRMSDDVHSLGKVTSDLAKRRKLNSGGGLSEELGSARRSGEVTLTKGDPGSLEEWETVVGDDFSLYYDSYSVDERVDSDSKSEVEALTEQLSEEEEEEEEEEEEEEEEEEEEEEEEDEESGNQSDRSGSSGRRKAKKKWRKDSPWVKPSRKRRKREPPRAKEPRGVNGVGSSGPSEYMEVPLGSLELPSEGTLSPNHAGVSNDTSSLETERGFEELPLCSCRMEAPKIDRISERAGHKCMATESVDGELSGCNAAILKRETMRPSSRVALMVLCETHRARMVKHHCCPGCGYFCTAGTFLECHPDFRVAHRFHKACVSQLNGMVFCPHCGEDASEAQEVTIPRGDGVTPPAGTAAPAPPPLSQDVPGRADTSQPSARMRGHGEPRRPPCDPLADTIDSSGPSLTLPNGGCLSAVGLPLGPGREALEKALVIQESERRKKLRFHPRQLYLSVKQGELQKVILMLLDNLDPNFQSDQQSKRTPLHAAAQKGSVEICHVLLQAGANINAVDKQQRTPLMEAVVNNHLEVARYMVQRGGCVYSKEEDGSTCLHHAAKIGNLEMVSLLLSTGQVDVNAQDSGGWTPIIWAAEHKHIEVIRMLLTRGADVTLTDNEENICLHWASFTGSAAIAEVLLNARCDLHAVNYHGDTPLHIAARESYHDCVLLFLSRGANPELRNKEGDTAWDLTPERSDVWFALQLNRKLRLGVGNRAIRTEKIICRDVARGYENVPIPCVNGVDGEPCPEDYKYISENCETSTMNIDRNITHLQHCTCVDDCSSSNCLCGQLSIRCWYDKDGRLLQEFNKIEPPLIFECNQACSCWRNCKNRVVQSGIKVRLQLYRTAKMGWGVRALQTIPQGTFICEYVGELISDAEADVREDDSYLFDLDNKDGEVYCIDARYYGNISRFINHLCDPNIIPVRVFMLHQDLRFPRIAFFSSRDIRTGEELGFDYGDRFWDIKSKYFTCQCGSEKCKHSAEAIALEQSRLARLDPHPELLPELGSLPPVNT
# Assay: qHTS Assay for Inhibitors of Histone Lysine Methyltransferase G9a; also: nearly all actives have a fitted effect of over 75% in size
# Settings: G9a H3K9 monomethylation, AlphaScreen, 2 h; activity, negative = inhibition: at 59 µM (top of the series) unless noted
# In short: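 Using a bead-based AlphaScreen, monomethylated H3K9 product from 2 h room-temperature reactions (G9a 20 nM, peptide 500 nM, SAM 20 uM) was detected with 0.5 ug/mL rabbit anti-H3K9me1 antibody.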
# % is scaled to controls: 0 for no effect and ±100 for the full control effect; potency is read from the fitted curve at half-maximal effect; tags tell the direction and shape of the fitted curve.
SMILES,Potency,"activity, negative = inhibition"
O=[N+]([O-])c1cc(CN2CCCC2)ccc1Sc1ccc(Cl)cc1,active: 35.5 µM,–
Cc1ccc(CN2CCNC(=O)C2CC(=O)N(C)C2CCCCC2)cc1 (stereo not drawn),active: 44.7 µM,–
COc1ccc(C(=O)Nc2ccc3oc(-c4cccc(Cl)c4)cc(=O)c3c2O)cc1,–,inconclusive: -75.4% [inhibitor]
CCOc1cc2[nH]c(=O)n(CCC(=O)NCCc3ccc(OC)c(OC)c3)c(=O)c2cc1OCC,"inconclusive: 28.2 µM [inhibitor, single point]",–
CCCCn1c(N)c(N(CC(C)C)C(=O)CCCc2nc3ccccc3s2)c(=O)[nH]c1=O,"inconclusive: 79.4 µM [inhibitor, single point]",–
CC1CN(S(=O)(=O)c2cccc(-c3cn4ccccc4n3)c2)CC(C)O1 (stereo not drawn),"inconclusive: 1.26 µM [inhibitor, full curve, poor fit]",–
O=C(CSC1=NNC(c2ccccn2)S1)Nc1ccccc1 (stereo not drawn),"inconclusive: 7.94 µM [inhibitor, full curve]",–
Cc1ccc(NC(=O)CN(C)C(=O)CSc2nc3ccccc3c(=O)n2CCO)cc1,"inconclusive: 89.1 µM [inhibitor, partial curve, poor fit]",–
COC(=O)C1C2C=CC3(CN(CC4CCCO4)C(=O)C13)O2 (stereo not drawn),"inconclusive: 89.1 µM [inhibitor, single point]",–
CCN(Cc1ccccc1)C(=O)COc1cc(=O)n(CC)c2ccccc12,inactive,–
COc1cccc(N2CCN(C(=O)c3cc(C)oc3C)CC2)c1,"inconclusive: 28.2 µM [inhibitor, single point]",–
CCN(CC)S(=O)(=O)c1ccc(N2CCOCC2)c(NC(=O)c2ccc(=O)n(C)n2)c1,–,inactive: -4.25% [at 12.7 µM]
Cc1nc(NCc2ccccc2)sc1C(=O)Nc1ccccc1,active: 50.1 µM,–
COc1ccc(C(=O)COC(=O)C(C)N2C(=O)C3C4CCC(C4)C3C2=O)cc1 (stereo not drawn),–,inactive: 5.74% [at 12.7 µM]
Cc1cc(C)nc(CCNC(=O)c2cc(COc3c(F)cccc3F)on2)n1,"inconclusive: 79.4 µM [inhibitor, partial curve, poor fit]",–
CC(=O)c1ccc(N=Cc2c(O)n(-c3cc(Cl)ccc3N3CCOCC3)c(=O)c3ccccc23)cc1,"inconclusive: 2.51 µM [inhibitor, partial curve, poor fit]",–
CC(C)OC(=O)c1c(NC(=O)C2CC=CCC2C(=O)O)sc2c1CCCCC2 (stereo not drawn),active: 44.7 µM,–
COc1ccc(N2CCN(C(=O)c3ccc4c(c3)CC(c3ccccc3)OC4=O)CC2)cc1 (stereo not drawn),active: 10 µM,–
Cc1cnc(C(=O)OC(C)C(=O)Nc2ccc(Oc3ccccc3)cc2)cn1 (stereo not drawn),–,inactive: -6.07% [at 12.7 µM]
CC1=Nc2ccccc2/C1=C/c1c(N)n2c(S(=O)(=O)CC(C)C)nsc2nc1=O,"inconclusive: 44.7 µM [inhibitor, full curve, poor fit]",–
CN(Cc1cccnc1)C(=O)CCCc1c[nH]c2ccccc12,"inconclusive: 89.1 µM [inhibitor, single point]",–
Cc1ccc(-c2nc(SCC(=O)NCC3CCCO3)c(-c3ccccc3)[nH]2)cc1 (stereo not drawn),"inconclusive: 79.4 µM [inhibitor, partial curve, poor fit]",–
N[C@@H](CSS(=O)(=O)O)C(=O)O,inactive,–

SMILES,Potency,"activity, negative = inhibition"
Oc1c(Cl)cc(Cl)cc1C=Nc1ccc2c(c1)OCCO2,"inconclusive: 1.26 µM [inhibitor, partial curve, poor fit]",–
COc1ccc(C2CC(=O)C(C=NCCN3CCN(C(=S)Nc4ccccc4)CC3)=C(O)C2)cc1OC (stereo not drawn),"inconclusive: 70.8 µM [inhibitor, partial curve, poor fit]",–
COc1ccc(NC(=O)C(OC(=O)c2ccc([N+](=O)[O-])o2)c2ccccc2)cc1Cl (stereo not drawn),"inconclusive: 22.4 µM [inhibitor, single point]",–
Cc1c(C)n(Cc2ccccc2)c2ncnc(NCCCN(C)C)c12,"inconclusive: 79.4 µM [inhibitor, single point]",–
O=C(c1ccc([N+](=O)[O-])cc1)c1cc2ccc(O)cc2oc1=O,active: 50.1 µM,–
CCNC(=S)N(CCc1c(C)[nH]c2ccc(C)cc12)Cc1cccs1,"inconclusive: 17.8 µM [inhibitor, full curve, poor fit]",–
CCc1ccc(-c2nc(C(N)=O)c3[nH]c(=O)n(-c4ccccc4OC)c3n2)cc1,"inconclusive: 89.1 µM [inhibitor, partial curve, poor fit]",–
Cc1ccc(CNC(=O)CNS(=O)(=O)c2ccc3nc(C)sc3c2)cc1,"inconclusive: 50.1 µM [inhibitor, partial curve]",–
COCC(C)NS(=O)(=O)c1ccc(C(=O)NC(Cc2ccccc2)c2ccccc2)cc1 (stereo not drawn),inactive,–
Cc1ccc(CN(C)C(=O)c2ccccc2NC(=O)c2ccccc2)o1,"inconclusive: 31.6 µM [inhibitor, single point]",–
Cc1nn(-c2ccccc2)c(C)c1C(=O)OC(C)C(=O)NC1CCCCC1C (stereo not drawn),"inconclusive: 3.55 µM [inhibitor, single point]",–
CC1CCCN(CCCOc2ccc(Br)cc2Cl)C1 (stereo not drawn),active: 20 µM,–
CCc1ccc(C(=O)c2cnc3ccc(OC)cc3c2N2CCN(CC)CC2)cc1,active: 39.8 µM,–
O=C1C=CCC(/C=C/c2ccccc2)O1 (stereo not drawn),"inconclusive: 89.1 µM [inhibitor, single point]",–
Cc1cc(C(=O)N2CCc3c([nH]c4ccccc34)C2c2c(F)cccc2Cl)no1 (stereo not drawn),inactive,–
Cc1c(NC(=O)C(C)OC(=O)c2ccc(Cl)nc2)c(=O)n(-c2ccccc2)n1C (stereo not drawn),inactive,–
CC(C)(C)NC(=O)N1CCn2cccc2C1c1ccccc1F (stereo not drawn),"inconclusive: 89.1 µM [inhibitor, single point]",–
CCCn1c(SCC(=O)NCc2ccc(F)cc2)n[nH]c1=O,inactive,–
Cc1ccc(C)c(NC(=O)COc2coc(CN3CCc4ccccc43)cc2=O)c1,"inconclusive: 39.8 µM [inhibitor, partial curve, poor fit]",–
Cc1cc(Nc2cccc(F)c2)n2nc(C)nc2n1,"inconclusive: 22.4 µM [inhibitor, partial curve, poor fit]",–
Cc1ccc(C(=O)Nc2nc3ccccc3s2)s1,"inconclusive: 3.55 µM [inhibitor, single point]",–
Nc1cccc2nsnc12,active: 11.2 µM,–
CCCCN1CCCc2cc(CN(CCCN3CCOCC3)C(=O)Nc3ccc(OCC)cc3)ccc21,"inconclusive: 10 µM [inhibitor, partial curve]",–

SMILES,Potency,"activity, negative = inhibition"
O=C(NCc1ccco1)c1ccc(COCC(F)(F)C(F)F)cc1,"inconclusive: 44.7 µM [inhibitor, partial curve, poor fit]",–
Cn1c(N=Nc2ccccc2)nc2ccccc21,"inconclusive: 10 µM [inhibitor, partial curve, poor fit]",–
Cc1ccc(-n2c(Cc3cccn3C)nnc2SCC(=O)NCc2ccco2)cc1,active: 50.1 µM,–
O=C(NCCS(=O)(=O)N1CCN(c2cccc(Cl)c2)CC1)c1ccco1,–,inactive: 6.7% [at 0.501 µM]
COc1ccc(C(C(=O)NC2CCCC2)N(C(=O)Cc2cccs2)C2CC2)cc1OC (stereo not drawn),"inconclusive: 1.58 µM [inhibitor, full curve]",–
Cc1cccc(N2CCN(C(=O)C3CCCN(S(=O)(=O)c4cnc[nH]4)C3)CC2C)c1 (stereo not drawn),"inconclusive: 39.8 µM [inhibitor, single point]",–
CCSc1ccccc1C(=O)NCc1ccco1,active: 10 µM,–
COc1nccnc1NS(=O)(=O)c1ccc(N=Cc2c(C)[nH]n(-c3ccccc3)c2=O)cc1,active: 56.2 µM,–
N=c1c2c(ncn1Cc1ccco1)Oc1ccc3ccccc3c1C2c1ccccc1 (stereo not drawn),"inconclusive: 28.2 µM [inhibitor, single point]",–
Cn1c(-c2ccccc2)c(CCO)c2ccccc21,"inconclusive: 22.4 µM [inhibitor, single point]",–
COc1ccc2[nH]c(=O)c(CNc3cccc(C)c3)cc2c1,"inconclusive: 50.1 µM [inhibitor, partial curve]",–
Cc1cc(=O)cc(C)n1-c1ccc(Cl)c(Cl)c1,"inconclusive: 89.1 µM [inhibitor, single point]",–
CCCn1c(N)c(C(=O)CSc2nnc3ccccn23)c(=O)n(C)c1=O,"inconclusive: 63.1 µM [inhibitor, partial curve, poor fit]",–
O=C(NC1CCN(Cc2ccccc2)CC1)c1ccc(Cn2c(=O)c3ccccc3n(Cc3ccccc3)c2=O)cc1,inactive,–
CN(C(=O)C1CCN(S(=O)(=O)c2ccccc2)CC1)c1c(N)n(Cc2ccccc2)c(=O)[nH]c1=O,"inconclusive: 79.4 µM [inhibitor, partial curve, poor fit]",–
CC(NS(=O)(=O)c1ccc(Br)cc1)C(=O)Nc1nc2ccccc2[nH]1 (stereo not drawn),inactive,–
Oc1c(C=NCc2ccncc2)sc2ccccc12,–,inconclusive: -100% [inhibitor]
CCOC(=O)C1(Cc2ccccc2)CCN(Cc2ccc3cc(NC(C)=O)ccc3n2)CC1,"inconclusive: 44.7 µM [inhibitor, partial curve]",–
COc1ccc(N2CCN(C(=O)CCn3c(=O)c4cccn4c4cccnc43)CC2)cc1,inactive,–
Cc1cc(O)c(CN(C)C)c2c1C(=O)/C(=C/c1ccco1)O2,active: 6.31 µM,–
O=C(NCc1ccc(F)cc1F)c1cc(COc2c(F)cccc2F)on1,"inconclusive: 4.47 µM [inhibitor, partial curve, poor fit]",–
COc1ccc(NC(=S)Nc2ccc3snnc3c2)cc1,"inconclusive: 50.1 µM [inhibitor, partial curve]",–
